Results from US20140286950A1 (Genentech, published 2014).

Assays:
[1] = target: T1, endogenous CD83 expressed on mature dendritic cells (MUTZ-3 derived mDCs or human monocyte-derived DCs) (human, UniProt Q01151 20-205); test: flow cytometry on MUTZ-3 derived mature DCs
T1 construct: Endogenous, untagged protein on dendritic cells; also called CD83 on mDC; cell surface CD83
T1 sequence: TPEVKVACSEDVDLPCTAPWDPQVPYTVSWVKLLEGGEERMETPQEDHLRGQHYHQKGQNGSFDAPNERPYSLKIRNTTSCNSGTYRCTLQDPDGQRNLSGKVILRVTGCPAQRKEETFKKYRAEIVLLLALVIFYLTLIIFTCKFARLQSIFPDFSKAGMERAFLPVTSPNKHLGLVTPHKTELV
Excerpt: (§1) CD83 expression on CHO-hCD83 cells and MUTZ-3 derived mDCs was confirmed by staining cells with fluorochrome conjugated antibodies to CD83 and analyzing the cells by flow cytometry on a LSR II flow cytometry using FACSDiva software (Becton Dickinson). Labeled isotype-matched antibodies were used to determine the level of non-specific staining. […] CD83 was expressed on MUTZ-3 derived mDC (black line), but at very low levels on iDC (gray line) (FIG. 1B). Solid histograms represent isotype controls. Following confirmation of cell surface CD83 expression, CHO cells and CHO-hCD83 cells were fixed in 4% PFA for 5 minutes followed by washing with cold 1×PBS. Cells were resuspended in a FACS buffer containing PBS/2% BSA/2 mM EDTA and incubated with 1 μg PE-labeled CD83.Fc or labeled IgG.Fc control protein for 30 minutes on ice in the dark. Cells were washed with FACS buffer and analyzed by flow cytometry. For iDCs and mDCs, cells were labeled with 10 μg/ml PE-labeled CD83.Fc or labeled IgG.Fc control protein prior to fixation and flow cytometry. […] Furthermore, CD83.fc bound to mature DC (black line) but not to immature DC (gray line) (FIG. 1D).

[2] = target: T2, N-terminal HIS-tagged human CD83 stably expressed on CHO cells (CHO-hCD83) (human, UniProt Q01151 20-205); test: flow cytometry on CHO cells stably expressing human CD83
T2 construct: also called CHO cells expressing human CD83; not shown: N-terminal HIS tag
T2 sequence: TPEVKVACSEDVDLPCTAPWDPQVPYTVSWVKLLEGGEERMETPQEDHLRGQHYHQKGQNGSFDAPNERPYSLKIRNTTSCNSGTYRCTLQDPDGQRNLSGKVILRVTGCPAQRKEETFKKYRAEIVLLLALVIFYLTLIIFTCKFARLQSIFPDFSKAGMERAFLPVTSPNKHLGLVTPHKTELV
Excerpt: as §1

- binding result [1]: binds
- binding result [2]: binds
B1: CD83.fc (Fc fusion)
chain: TPEVKVACSEDVDLPCTAPWDPQVPYTVSWVKLLEGGEERMETPQEDHLRGQHYHQKGQNGSFDAPNERPYSLKIRNTTSCNSGTYRCTLQDPDGQRNLSGKVILRVTGCPAQRKEETFKKYGRAQVTDKAAHYTL[sequence of human IgG1 Fc omitted]
modifications: PE-labeled in the flow cytometry binding assays (site not stated)
notes: also called soluble CD83
